From the supplement of paper PMC3724861 come the findings set out here.

Some of the results follow. A value given as a limit tells only on which side of the number the result lay.

For this assay, the system named is T1, Caupolican (Caup) homeodomain DNA-binding domain.
T1 sequence: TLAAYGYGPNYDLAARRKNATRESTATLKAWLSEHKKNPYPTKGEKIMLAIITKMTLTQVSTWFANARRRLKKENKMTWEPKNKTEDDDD
The assay can be described thus: PBM E-score (8-mer, recovered from the published 9-mer minima) (E-score (dimensionless, -0.5 to 0.5)); Drosophila protein; higher = stronger relative binding preference, active = 0.31 or more. Put shortly:
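An enrichment score, with higher meaning stronger, expresses relative binding preference for each short DNA word. The protein used was Caup's homeodomain DNA-binding domain (residues 214-303), produced by in vitro transcription and translation and tested at 100 nM on custom-designed protein binding microarrays. The 8-mer values were recovered from published 9-mer scores, each equal to the lower of its two constituent 8-mer scores.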
For the sequence CACCCACC, the “PBM E-score” value was inactive: -0.0812.

With CCCCAGAA, the “PBM E-score” value is inactive: -0.159.

On to ACCAATGG, for which the “PBM E-score” value is inactive: -0.0754.

For the sequence TAAGCGCA, the “PBM E-score” value is inactive: -0.0729.

For the sequence ATCCGCGA, the “PBM E-score” value was inactive: -0.0716.

Consider AAGGTATA, for which the “PBM E-score” value is inactive: 0.0576.

For AGTCGACA, the “PBM E-score” value was inactive: 0.243.

CTTAACTC: the “PBM E-score” value is inactive: 0.0277.

Consider AATTGTCG, for which the “PBM E-score” value was inactive: 0.056.

For CGAACTTA, the “PBM E-score” value is inactive: -0.101.

With ATCGTCTA, the “PBM E-score” value is inactive: 0.0297.

As for CGACGTGC, the “PBM E-score” value was inactive: -0.0819.

Take AAGGAGTA: the “PBM E-score” value was inactive: -0.0149.

Regarding CCTCGAAA, the “PBM E-score” value was inactive: 0.0004.

As for ACCAGCAC, the “PBM E-score” value is inactive: 0.0439.

In the case of CCAAGCCG, the “PBM E-score” value is inactive: -0.197.

In the case of CGGCCAGC, the “PBM E-score” value is inactive: -0.233.

Turning to AGAGCTCT, the “PBM E-score” value is inactive: -0.176.

As for AGCCCGAG, the “PBM E-score” value was inactive: -0.187.

With GGCGATGA, the “PBM E-score” value is inactive: -0.156.

Take CCCTGCTA: the “PBM E-score” value was inactive: -0.116.

Regarding GCTATGCC, the “PBM E-score” value was inactive: -0.148.

With TCTATCAA, the “PBM E-score” value was inactive: 0.0734.

For the sequence AGAGAATG, the “PBM E-score” value is inactive: 0.00744.

AATAAAGT: the “PBM E-score” value was at least 0.166.

On to CTCACACC, for which the “PBM E-score” value was inactive: -0.114.

As to CGTGTGGC, the “PBM E-score” value is inactive: -0.0635.

Consider AGTCATGG, for which the “PBM E-score” value is inactive: -0.0716.

For the sequence ACTACCAG, the “PBM E-score” value was inactive: 0.16.

GCTCTTGA: the “PBM E-score” value is inactive: -0.0842.

With CGCCTATC, the “PBM E-score” value is inactive: -0.0134.

Consider ATGTCCTC, for which the “PBM E-score” value was inactive: 0.272.

CATTGGTA: the “PBM E-score” value is inactive: 0.127.

Turning to GGGTCGCA, the “PBM E-score” value was inactive: -0.19.

As to ACCATGCG, the “PBM E-score” value is inactive: -0.0486.

On to ATCGCCAA, for which the “PBM E-score” value is inactive: -0.0895.

As for ATACATCG, the “PBM E-score” value is inactive: 0.273.

Regarding AACGCATG, the “PBM E-score” value is inactive: 0.0871.

Regarding CGCATCCG, the “PBM E-score” value is inactive: -0.134.

As to AGATTTGC, the “PBM E-score” value is inactive: 0.0709.

In the case of ATCCATTA, the “PBM E-score” value is inactive: 0.1.

With CACGACGC, the “PBM E-score” value is inactive: -0.0593.

Consider CATGGCGC, for which the “PBM E-score” value is inactive: -0.16.

With ACGGGGCG, the “PBM E-score” value was inactive: -0.21.

For CGCCCGCC, the “PBM E-score” value is inactive: -0.261.

On to ACGACTAG, for which the “PBM E-score” value is inactive: 0.135.

Consider ATACAATC, for which the “PBM E-score” value was inactive: 0.126.

For the sequence AAACTCCA, the “PBM E-score” value is inactive: 0.00485.

Turning to AAAACCGC, the “PBM E-score” value is inactive: -0.0256.

Regarding AGTACAGC, the “PBM E-score” value was inactive: 0.167.

On to AGGTCGTA, for which the “PBM E-score” value is at least 0.0868.

For the sequence ACTCCTCA, the “PBM E-score” value is inactive: -0.104.

With AACAAGTT, the “PBM E-score” value was active: 0.33.

AGTGCAGA: the “PBM E-score” value was inactive: -0.0583.

Turning to CCTCAGCG, the “PBM E-score” value was inactive: -0.174.

Regarding CCAGTAGC, the “PBM E-score” value is inactive: -0.123.

Turning to GATTGTTA, the “PBM E-score” value is inactive: 0.211.

For ATGAACTG, the “PBM E-score” value was inactive: 0.0588.

Take AGTGGAAG: the “PBM E-score” value is inactive: -0.198.

Turning to CCCGACTC, the “PBM E-score” value is inactive: -0.175.

Take AAACCTTC: the “PBM E-score” value was inactive: -0.117.
